Reference: article PMC3466175
These are yes or no findings as the source states them, for the method shown. Binding seen in cells or lysates may run through a third protein. Some entries that bind do so weakly or less than the wild type. For part of these data: Sequences can lack the tags named with a protein. Blank lines part the entries; values can stand above or below the binder they belong to.

Protein sequences, listed by entry. Tags and fused reporters are not part of them. Lines headed by an entry give the natural chain unless they say otherwise; changes in a name come on top. Chains listed by the source or under a name are the forms on record and can include a tag or linker. Residues count along the entry.
UniProt Q8IUC6: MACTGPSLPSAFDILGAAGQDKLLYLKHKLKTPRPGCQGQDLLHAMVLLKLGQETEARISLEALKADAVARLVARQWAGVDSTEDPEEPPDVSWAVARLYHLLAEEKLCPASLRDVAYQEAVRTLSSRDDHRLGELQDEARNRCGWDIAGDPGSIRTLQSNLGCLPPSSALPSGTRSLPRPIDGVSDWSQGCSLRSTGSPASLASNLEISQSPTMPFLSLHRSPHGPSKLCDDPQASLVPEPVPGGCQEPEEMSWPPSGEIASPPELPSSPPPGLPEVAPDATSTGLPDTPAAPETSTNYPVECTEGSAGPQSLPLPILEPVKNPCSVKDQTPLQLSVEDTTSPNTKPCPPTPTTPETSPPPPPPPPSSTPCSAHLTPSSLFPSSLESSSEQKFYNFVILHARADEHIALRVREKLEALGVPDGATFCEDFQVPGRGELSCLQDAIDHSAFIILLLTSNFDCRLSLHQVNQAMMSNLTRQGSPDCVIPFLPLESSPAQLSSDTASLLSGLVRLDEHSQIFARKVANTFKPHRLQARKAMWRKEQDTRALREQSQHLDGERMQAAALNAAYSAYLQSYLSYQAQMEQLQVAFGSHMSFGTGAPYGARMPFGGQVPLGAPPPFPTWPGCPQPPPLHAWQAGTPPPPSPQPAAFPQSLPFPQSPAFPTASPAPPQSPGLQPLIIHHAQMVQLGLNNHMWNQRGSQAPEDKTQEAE
TRIF-N (aa 1–359), Flag-tagged: residues 1-359 of Q8IUC6
TRIF TIR (aa 387–556), Flag-tagged: residues 387-556 of Q8IUC6
TRIF-C (aa 534–712), Flag-tagged: residues 534-712 of Q8IUC6

Legend:
Flag-TRIF (full length) = Flag-TRIF (full length) (UniProt Q8IUC6); test: co-IP; 293T cells co-transfected, 24 h; lysed in RIPA buffer (25 mM Tris-HCl pH 7.4, 150 mM NaCl, 1 mM EDTA, 1% NP40, 0.25% sodium deoxycholate); anti-Flag M2 agarose beads overnight at 4°C; immunoblot with anti-Myc and anti-Flag antibodies
[1] = biological target: TRIF TIR (aa 387–556), Flag-tagged (UniProt Q8IUC6); test: as above
[2] = biological target: TRIF-N (aa 1–359), Flag-tagged (UniProt Q8IUC6); test: as above
[3] = biological target: TRIF-C (aa 534–712), Flag-tagged (UniProt Q8IUC6); test: as above
Flag-IKKi = biological target: T1, Flag-IKKi (UniProt Q14164); test: as above
T1 sequence: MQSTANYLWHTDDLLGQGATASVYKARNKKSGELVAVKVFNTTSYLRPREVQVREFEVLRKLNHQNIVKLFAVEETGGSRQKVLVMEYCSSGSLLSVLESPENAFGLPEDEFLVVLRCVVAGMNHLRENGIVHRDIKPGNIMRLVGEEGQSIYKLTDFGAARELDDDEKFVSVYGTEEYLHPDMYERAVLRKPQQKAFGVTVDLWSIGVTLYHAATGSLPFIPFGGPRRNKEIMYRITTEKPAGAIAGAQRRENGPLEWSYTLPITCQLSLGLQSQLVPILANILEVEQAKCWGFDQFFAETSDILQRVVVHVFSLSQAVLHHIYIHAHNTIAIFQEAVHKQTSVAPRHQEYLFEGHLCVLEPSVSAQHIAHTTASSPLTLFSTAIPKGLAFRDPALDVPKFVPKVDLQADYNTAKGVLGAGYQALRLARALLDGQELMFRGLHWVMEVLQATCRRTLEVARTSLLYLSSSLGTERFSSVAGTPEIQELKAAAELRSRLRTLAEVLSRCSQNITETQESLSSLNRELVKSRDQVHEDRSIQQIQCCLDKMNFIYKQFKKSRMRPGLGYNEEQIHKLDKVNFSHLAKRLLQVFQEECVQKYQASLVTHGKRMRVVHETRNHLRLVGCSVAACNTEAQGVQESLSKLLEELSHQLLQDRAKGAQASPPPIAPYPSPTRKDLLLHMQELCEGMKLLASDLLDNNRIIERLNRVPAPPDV

Flag-TBK1 = biological target: T2, Flag-TBK1 (UniProt Q9UHD2); test: as above
T2 sequence: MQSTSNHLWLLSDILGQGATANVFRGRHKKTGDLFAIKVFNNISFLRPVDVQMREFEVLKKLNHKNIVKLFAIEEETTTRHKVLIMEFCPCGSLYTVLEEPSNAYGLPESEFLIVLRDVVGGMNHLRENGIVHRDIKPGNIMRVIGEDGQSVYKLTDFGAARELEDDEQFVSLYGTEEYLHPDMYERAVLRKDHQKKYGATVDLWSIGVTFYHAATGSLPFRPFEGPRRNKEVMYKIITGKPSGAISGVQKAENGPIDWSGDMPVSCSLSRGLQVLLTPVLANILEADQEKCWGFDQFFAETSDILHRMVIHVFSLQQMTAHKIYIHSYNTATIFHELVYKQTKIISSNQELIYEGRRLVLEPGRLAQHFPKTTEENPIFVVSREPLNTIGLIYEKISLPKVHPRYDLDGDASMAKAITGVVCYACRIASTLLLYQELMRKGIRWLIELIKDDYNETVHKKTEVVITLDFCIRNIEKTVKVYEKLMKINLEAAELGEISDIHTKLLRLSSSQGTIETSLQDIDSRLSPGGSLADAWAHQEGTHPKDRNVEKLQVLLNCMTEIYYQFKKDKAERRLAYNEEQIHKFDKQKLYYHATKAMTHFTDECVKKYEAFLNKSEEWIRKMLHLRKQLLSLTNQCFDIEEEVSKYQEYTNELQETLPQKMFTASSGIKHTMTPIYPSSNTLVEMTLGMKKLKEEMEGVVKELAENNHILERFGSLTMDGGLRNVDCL

[4] = biological target: endogenous TRIF (human (endogenous in HeLa)) (UniProt Q8IUC6); test: co-IP; endogenous proteins; HeLa cells untreated or treated with 100 µg/ml poly(I:C) for 4 h, lysed in RIPA buffer; goat anti-TRIF antibody or control goat IgG overnight at 4°C, protein A/G beads; immunoblot with rabbit anti-TRIM38 and rabbit anti-TRIF antibodies

binding (Flag-TRIF (full length)): no binding
B1: TRIM38 ΔPRYSPRY (aa 1–274) (domain or fragment, UniProt O00635 1-274)
chain: MASTTSTKKMMEEATCSICLSLMTNPVSINCGHSYCHLCITDFFKNPSQKQLRQETFCCPQCRAPFHMDSLRPNKQLGSLIEALKETDQEMSCEEHGEQFHLFCEDEGQLICWRCERAPQHKGHTTALVEDVCQGYKEKLQKAVTKLKQLEDRCTEQKLSTAMRITKWKEKVQIQRQKIRSDFKNLQCFLHEEEKSYLWRLEKEEQQTLSRLRDYEAGLGLKSNELKSHILELEEKCQGSAQKLLQNVNDTLSRSWAVKLETSEAVSLELHTMC

binding (Flag-TRIF (full length)): binds
B2: TRIM38 PRYSPRY (aa 274–465) (domain or fragment, UniProt O00635 274-465)
chain: CNVSKLYFDVKKMLRSHQVSVTLDPDTAHHELILSEDRRQVTRGYTQENQDTSSRRFTAFPCVLGCEGFTSGRRYFEVDVGEGTGWDLGVCMENVQRGTGMKQEPQSGFWTLRLCKKKGYVALTSPPTSLHLHEQPLLVGIFLDYEAGVVSFYNGNTGCHIFTFPKASFSDTLRPYFQVYQYSPLFLPPPGD

binding [1]: no binding
binding [2]: binds
binding [3]: no binding
binding (Flag-TRIF (full length)): binds
binding (Flag-IKKi): no binding
binding (Flag-TBK1): no binding
B3: TRIM38-Myc (full length TRIM38) (protein, UniProt O00635 1-465)
chain: MASTTSTKKMMEEATCSICLSLMTNPVSINCGHSYCHLCITDFFKNPSQKQLRQETFCCPQCRAPFHMDSLRPNKQLGSLIEALKETDQEMSCEEHGEQFHLFCEDEGQLICWRCERAPQHKGHTTALVEDVCQGYKEKLQKAVTKLKQLEDRCTEQKLSTAMRITKWKEKVQIQRQKIRSDFKNLQCFLHEEEKSYLWRLEKEEQQTLSRLRDYEAGLGLKSNELKSHILELEEKCQGSAQKLLQNVNDTLSRSWAVKLETSEAVSLELHTMCNVSKLYFDVKKMLRSHQVSVTLDPDTAHHELILSEDRRQVTRGYTQENQDTSSRRFTAFPCVLGCEGFTSGRRYFEVDVGEGTGWDLGVCMENVQRGTGMKQEPQSGFWTLRLCKKKGYVALTSPPTSLHLHEQPLLVGIFLDYEAGVVSFYNGNTGCHIFTFPKASFSDTLRPYFQVYQYSPLFLPPPGD

binding [4]: binds
B4: endogenous TRIM38 (protein, UniProt O00635 1-465)
chain: B3 chain
